# Results published in the supplement of paper PMC11417369.
# ± gives the standard deviation of the averaged measurements. This is one part of the list.
# System: PfAP2-LT AP2 domain (GST-tagged)
# Assay: gcPBM binding intensity (ln(normalized median fluorescence intensity)); higher = stronger DNA binding
# Procedure, shortened: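 An Agilent 4 × 180k array carrying primer-extended double-stranded 36-bp intergenic genomic probes and negative controls received GST-tagged P. falciparum DNA-binding domains expressed in E. coli, about 25 μg on average, for 1 h. The binding buffer contained 1× PBS, 1% milk, 0.2 mg/ml BSA, 0.5% salmon testes DNA and 0.03% Triton X-100. Binding intensity is the top Masliner-normalised natural-log median intensity across replicate spots of either probe orientation, read after Alexa488 anti-GST antibody staining and a 488 nm scan.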
row,Sequence,gcPBM binding intensity (ln)
1,ATTCAAAAAAAATCAACACACAGTTACATAGCTCAA [CACACA_site2234],8.86 ± 0.4
2,ATATATATATATATGTGTACACAAAAAATATTATAT [XGTACX_site5741],9.29 ± 0.38
3,GCACATATATATGAAACACACATGGAAACATCTCTT [CACACA_site3966],9.23 ± 0.37
4,AATCTAATTAAAATCACACATATATTCGTCGTAATA [CACACA_site5855],8.69 ± 0.36
5,ATATATATATATATAACACACGTGTATTTATCTGTA [CACACA_site5922],9.53 ± 0.21
6,AAAAAATTAACGAGTGCACACATATTTAGATAAAAT [CACACA_site8958],9.27 ± 0.57
7,AATGTATATTATTGCACACATATATAAAATTATGCT [CACACA_site1096],9.13 ± 0.31
8,AAAAAAATATAGATCTGTACATATATAAATATATGT [XGTACX_site511],8.67 ± 0.48
9,TCTCTAATTTTTAATACACACAAATAAATAAATAAA [CACACA_site216],8.51 ± 0.41
10,ATATATGTTAATAATTGTACAAATCGATAATATATA [XGTACX_site5076],8.9 ± 0.46
11,ATCTCTATGATATATACACACAAATATACAAAAAAA [CACACA_site6605],8.96 ± 0.45
12,ATTTGTGAATATATTCGGTGAACTTTGTTAACACAT [XGTACX_negctrl_site445],8.83 ± 0.38
13,AACGAAAACACTACGTGTACCAAATGTCCTGCCAAC [XGTACX_site5735],9.06 ± 0.42
14,ATGGAAAAAAAGCATTGTACATTTAAAGAAAAACAG [XGTACX_site6639],8.7 ± 0.45
15,TATTATATTTGTATGTGTACTTATATGGTTGTAATA [XGTACX_site4548],8.72 ± 0.54
16,AAATATTATCAAACATAAATTATTTTTATCCGTATA [CACACA_negctrl_site771],8.49 ± 0.52
17,AAAAAAAAAAAAAACACACACATGCACCTCATATTA [CACACA_site556],9.48 ± 0.38
18,AGGCATAATTAAAAGTAACAATTATGGAAACGGAGT [GTGCAC_negctrl_site623],8.94 ± 0.53
19,TTTATTTATTATTAAAGTACTAAATTATATTATTAT [XGTACX_site2565],8.35 ± 0.54

row,Sequence,gcPBM binding intensity (ln)
1,AATTCATATACAAAAAGTACAAACGAAAAATAAAAA [XGTACX_site2900],8.82 ± 0.54
2,TATGTGCACCCATATACACACACAAATACAATGATA [CACACA_site8295],9.6 ± 0.3
3,ATGTTTTATATTATTAATATATATATATATATATAT [CACACA_negctrl_site331],9.07 ± 0.33
4,GTTATATAAAAATATTGTACATTCTATATAAAGTCA [XGTACX_site4418],8.46 ± 0.37
5,AAAAAAAAAAAAAAATGTACATATAAATAAATATAT [XGTACX_site7248],8.64 ± 0.61
6,TAATATCCATATAAAACACACATCAAGGTTGTTAAC [CACACA_site175],8.82 ± 0.39
7,ACAACATAGAGGGGCACACACATATATACATAAAAA [CACACA_site6954],9.41 ± 0.55
8,ATATATATATATATAAAGTGAAGTATGAGGGAAATA [XGTACX_negctrl_site497],9.13 ± 0.45
9,TTATTATTTTATAACACACACATATAGATTATAGCT [CACACA_site6787],9.15 ± 0.33
10,TTTTGTATTTATGGATGTACATAATATGTTTTAAAC [XGTACX_site3278],8.77 ± 0.4
11,AAAAATTAAATATAAAGTACAAAATTAAAATCTTAA [XGTACX_site931],8.53 ± 0.45
12,TATGTATGTATTAATGCGCACACAAAAAATAACAAT [CACACA_site8551],9.37 ± 0.3
13,TTTCCATATATAGAACGTACAAAGATCTTTGTTACT [XGTACX_site8972],8.68 ± 0.47
14,ATACATATATATATGTGTACATATTATATATACATA [XGTACX_site8420],8.85 ± 0.38
15,TATATATGGTATAATTGTACTAACGCCAACTATACC [XGTACX_site5853],8.8 ± 0.47
16,TATATATATTTATACACACAAACATAATACTACTTA [CACACA_site2022],8.86 ± 0.35
17,TAGCTTTTGCCTTTTTTTAAAAAAAAATAAATAAAT [TGCATGCA_negctrl_site242],8.06 ± 0.31
18,TTTTTTTTTATGTGCACACAAAAGATGCTTATATTT [CACACA_site2348],9.14 ± 0.28
19,TGCATATACATATGTAGTACAATAATTTGAAAAAAA [XGTACX_site5239],8.77 ± 0.4

row,Sequence,gcPBM binding intensity (ln)
1,ATAAATATATGAAATATACACACTTCTTTGGTATTA [CACACA_site456],8.78 ± 0.43
2,TTTCGTAACTATTTGTGTACATATATATATATATAT [XGTACX_site2920],9.37 ± 0.3
3,ATTTTCTTTTCCATAGTGCAATATAATTATCCATCA [GTGCAC_site9547],8.74 ± 0.41
4,ATTTTGTGCGCACACACATGCAAAAAGAAATATGAT [TGCATGCA_site261],9.5 ± 0.33
5,AAAGAGAGTATCTAATGTACGTATGTATGTATATAT [XGTACX_site1780],8.96 ± 0.52
6,TATTATATATTAAATGCATGTAAAAATAATATTAAA [TGCATGCA_site643],8.48 ± 0.47
7,AATTATTTACCCTATACACACAAAACACGCTAAAAA [CACACA_site1211],9.17 ± 0.23
8,ATATTATAATAAATGTGTACATATTGTAGAAATATT [XGTACX_site8101],8.94 ± 0.49
9,ATAAATACACACAAGTGTACATACTTCTATAAATAT [XGTACX_site1845],9.08 ± 0.33
10,ATCGTGAATAATATCTGTACATATGAACACATATAT [XGTACX_site952],9.04 ± 0.49
11,TCACATACATGAAAATGTACTTTTATAATTCCATAA [XGTACX_site1836],8.55 ± 0.41
12,GTTATAAATAAATACACACATACAAAAATATGACGT [CACACA_site1154],9.25 ± 0.3
13,ATATAAAATACATGGGTGCAATATATTAAACAAATA [GTGCAC_site9421],8.91 ± 0.47
14,TATGACCTTAGAAATTGTACAAGAAAAAATGTTACA [XGTACX_site7084],8.59 ± 0.54
15,TCTGTAAATACGTGCACACACAAATCACAAATGTGA [CACACA_site330],9.21 ± 0.27
16,TAAATAATTTCACGAATGACAAAGATATAATAAGTT [CACACA_negctrl_site1430],8.71 ± 0.45
17,TAAAGGTGAACAATACGTACATAAGAACTTATGAGG [XGTACX_site4216],8.94 ± 0.4
18,ATATATATTTTTTAAACACACACATAAATATTTGTG [CACACA_site8936],9.18 ± 0.4
